Results from PubChem BioAssay AID1347417 (National Center for Advancing Translational Sciences (NCATS), 2020).
Out of some 120,000 compounds screened, about 5,300 (4.4%) were called active. The inconclusive results got no clear call from the source; some entries with a clear call stand among them for comparison. The call rests on the fitted dose curve; in most records, active means well fitted inhibition curve with a large enough effect; inconclusive means small, poorly fitted or top-dose-only effect; inactive means no such curve, though single readings can be large or run the other way. Potencies beside an inconclusive call are fits to weak or partial responses and may not hold up.

Test: qHTS Primary assay for Inhibitors of Plasmodium falciparum Dd2 growth in vitro; further: nearly all actives have a fitted effect of over 65% in size;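 on activity, negative = inhibition: plate controls were DMSO vehicle for no effect and reference drug for full effect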
Details: P. falciparum Dd2 growth, SYBR Green, 72 h; activity, negative = inhibition: at 28.9 µM (top of the series) unless noted; series mostly up to 28.9 µM
Method in brief: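 Readout: SYBR Green fluorescence, 485 nm excitation, 535 nm emission, after ~16 h lysis at 37C. Before that, Dd2-infected red cells (2.5% hematocrit) grew 72 h with compound, 29 uM top final concentration.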
Potency means the concentration at half of the fitted maximal effect; tags describe the fitted curve by direction and shape.

Row | Compound | Potency | activity, negative = inhibition
1 | C[C@@H]1CN(Cc2nc3c(n2Cc2ccccc2)C(=O)N(CCOc2ccccc2)CCN3)C[C@H](C)O1 | inconclusive: 3.98 µM [inhibitor, single point] | –
2 | O=C(NCCCn1ccnc1)c1ccc(-c2ncc3cnc(-c4ccccc4)cn23)cc1 | inconclusive: 3.98 µM [inhibitor, full curve, poor fit] | –
3 | CC[C@H]1CN(C(=O)c2ccccc2)CC[C@H]1CC(=O)NCc1ccc(F)cc1 | inconclusive: 10 µM [inhibitor, partial curve, poor fit] | –
4 | Cc1ccccc1-c1cc2c(nc1-c1ccccc1)nc(C(=O)NCCN(C)C)n2C | inconclusive: 8.91 µM [inhibitor, partial curve, poor fit] | –
5 | COC(=O)C(=O)N[C@H]1C[C@@H](Cc2cc(-c3ccccc3)on2)C1(C)C | inactive | –
6 | COc1cccc(CN2CCNc3cc(Nc4ccccc4)ncc3C2)c1 | inconclusive: 2 µM [inhibitor, partial curve, poor fit] | –
7 | CC1CCCCN1Cc1c(O)ccc2c(=O)c(-c3ccc(Cl)cc3)c(C(F)(F)F)oc12 (centres undefined) | active: 10 µM | –
8 | CC1=C(C(=O)OCc2ccc(C)cc2)C(c2ccccc2C(F)(F)F)CC(=O)N1 (centres undefined) | active: 5.62 µM | –
9 | CC(C)CNC(=O)CN1CCOc2c(O)cc(-c3cccc(Cl)c3)cc2C1 | active: 10 µM | –
10 | COc1cccc(CNC[C@H]2O[C@H](Cc3cc(-c4ccccc4)on3)CC[C@@H]2O)c1 | active: 2.51 µM | –
11 | CC(=O)N1CCc2nn(CC(=O)Nc3ccc(F)c(F)c3)c(=O)cc2C1 | inconclusive: 0.562 µM [inhibitor, full curve] | –
12 | CSc1cccc(-n2ccnc2-c2cc3n(n2)CCCNC3)c1 | inconclusive: 5.62 µM [inhibitor, partial curve, poor fit] | –
13 | COc1cccc(NC(=O)C2CCCN(c3ncnc4onc(-c5ccc(F)cc5)c34)C2)c1 (centres undefined) | inconclusive: 10 µM [inhibitor, single point] | –
14 | COCC(=O)N1CCCCC1c1nc(-c2ccccc2)n[nH]1 (centres undefined) | inconclusive: 20 µM [inhibitor, single point] | –
15 | COc1ccccc1-c1cc([C@H]2CN3CC[C@H]2C[C@@H]3COC(=O)NC2CCCCC2)nc(C)n1 | inconclusive: 0.316 µM [inhibitor, partial curve, poor fit] | –
16 | CCOC(=O)c1c(Nc2ccc(C)c(C)c2)nnc(-c2ccccc2)c1-c1ccccc1 | inconclusive: 0.224 µM [inhibitor, full curve, poor fit] | –
17 | Cn1cccc1C(=O)N1CCCC(n2cc(-c3nc(-c4ccccc4)no3)nn2)C1 (centres undefined) | inconclusive: 3.98 µM [inhibitor, single point] | –
18 | O=C(NCCc1ccccc1)c1c[nH]c2ccc(S(=O)(=O)Nc3ccc(F)cc3F)cc2c1=O | inconclusive: 17.8 µM [inhibitor, single point] | –
19 | CCc1noc(-c2cn(C3CCN(C(=O)c4cc(C5CC5)[nH]n4)C3)nn2)n1 (centres undefined) | inactive | –
20 | CCOCc1nc(C2CCCN2S(=O)(=O)c2cccs2)no1 (centres undefined) | inactive | –

Row | Compound | Potency | activity, negative = inhibition
21 | COc1cc(NC(=O)Cn2cccc2-c2nc(-c3ccc(F)cc3)no2)cc(OC)c1 | inconclusive: 3.98 µM [inhibitor, single point] | –
22 | CCCNC(=O)CC1COc2ccc(C(=O)NCCOC)cc2N1C (centres undefined) | inactive | –
23 | Cc1cc(C(=O)N2CCCC(Cc3noc(-c4cccnc4)n3)C2)nn1C (centres undefined) | inconclusive: 11.2 µM [inhibitor, single point] | –
24 | CCCS(=O)(=O)NC[C@H]1C[C@@H]2CCN1C[C@@H]2c1cc(C(CC)CC)nc(-c2ccncc2)n1 | inconclusive: 2.24 µM [inhibitor, partial curve] | –
25 | Cc1ccc(C2=Nc3ccccc3N=C(c3ccc(F)cc3)C2)c(O)c1 | inconclusive: 11.2 µM [inhibitor, single point] | –
26 | CCN(c1ccccc1C)S(=O)(=O)c1nnc(NC(=O)c2ccc(OC)c(OC)c2)s1 | inconclusive: 10 µM [inhibitor, single point] | –
27 | CCCCC(=O)NC1CCN(c2cnn(CC3CC3)c(=O)c2)CC1 | inconclusive: 3.98 µM [inhibitor, single point] | –
28 | CCN(CC)C(=O)N1CCCCC1c1noc(COc2ccc(F)cc2)n1 (centres undefined) | inconclusive: 2 µM [inhibitor, full curve] | –
29 | Cn1cnc(S(=O)(=O)N2CCCC(Cc3noc(-c4cccnc4)n3)C2)c1 (centres undefined) | inconclusive: 0.282 µM [inhibitor, full curve, poor fit] | –
30 | COc1ccc(Cn2c(SCc3ccc(C(=O)NCc4ccc(C)cc4)cc3)nc3cccnc32)cc1 | active: 10 µM | –
31 | O=C(NCCc1ccccc1)c1ccc2c(c1)N(Cc1ccc(Cl)cc1)C(=O)c1ccccc1S2(=O)=O | inconclusive: 10 µM [inhibitor, single point] | –
32 | CCc1cccc(NC(=O)Cn2c(=O)n(CCCCCC(=O)NCc3ccc(F)cc3)c(=O)c3sccc32)c1 | inconclusive: 11.2 µM [inhibitor, single point] | –
33 | COc1cccc(CN2CCCN(S(=O)(=O)c3ccccc3)CCC(=O)NCC2)n1 | inconclusive: 17.8 µM [inhibitor, single point] | –
34 | COc1ccc(C(C)NC(=O)c2nnn3cc(C)[nH]c(=O)c23)cc1 (centres undefined) | inactive | –
35 | COc1cc(CN2CCc3nc(N(C)C)[nH]c(=O)c3CC2)cc(OC)c1OC | – | inactive: -9.3% [at 5.79 µM]
36 | CC1CCN(S(=O)(=O)c2ccc3nc(NCc4ccc(N(C)C)cc4)ccc3c2)CC1 | active: 11.2 µM | –
37 | COc1ccc(C(=O)N[C@H]2[C@H](O)[C@H](O)C[C@@H]2c2ccc(C(F)(F)F)cc2)cc1OC | inconclusive: 31.6 µM [inhibitor, single point] | –
38 | COc1ccc(-c2cc(N3CCC(NC(=O)c4ccc(OC)c(F)c4)CC3)n[nH]2)cc1 | inconclusive: 2.24 µM [inhibitor, single point] | –
39 | CC1=C(c2ccc(C)c(C)c2)S(=O)(=O)N(Cc2ccc(C(=O)NCc3ccccc3F)cc2)C1=O | inconclusive: 17.8 µM [inhibitor, single point] | –
